# Assay results: publication PMC4336329 (PLoS ONE, 2015)
# The whole screen tested about 310,000 compounds, of which about 14,000 (4.5%) showed an effect of 50% or more. Effects have a minus sign here. This is one part of the list. Where a SMILES comes first, the peptide text is derived from it. The star is where a group is joined. Boc = CC(C)(C)OC(=O)*
# Molecular target: human ether-à-go-go-related gene (hERG) potassium channel (human, UniProt Q12809)
# Assay: primary screen, population patch clamp on CHO cells stably expressing hERG
# 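Further: peak tail current of the secondary pulse compared with the same well before compound.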
# human ether-à-go-go-related gene (hERG) potassium channel, sequence (Q12809 whole entry, looked up): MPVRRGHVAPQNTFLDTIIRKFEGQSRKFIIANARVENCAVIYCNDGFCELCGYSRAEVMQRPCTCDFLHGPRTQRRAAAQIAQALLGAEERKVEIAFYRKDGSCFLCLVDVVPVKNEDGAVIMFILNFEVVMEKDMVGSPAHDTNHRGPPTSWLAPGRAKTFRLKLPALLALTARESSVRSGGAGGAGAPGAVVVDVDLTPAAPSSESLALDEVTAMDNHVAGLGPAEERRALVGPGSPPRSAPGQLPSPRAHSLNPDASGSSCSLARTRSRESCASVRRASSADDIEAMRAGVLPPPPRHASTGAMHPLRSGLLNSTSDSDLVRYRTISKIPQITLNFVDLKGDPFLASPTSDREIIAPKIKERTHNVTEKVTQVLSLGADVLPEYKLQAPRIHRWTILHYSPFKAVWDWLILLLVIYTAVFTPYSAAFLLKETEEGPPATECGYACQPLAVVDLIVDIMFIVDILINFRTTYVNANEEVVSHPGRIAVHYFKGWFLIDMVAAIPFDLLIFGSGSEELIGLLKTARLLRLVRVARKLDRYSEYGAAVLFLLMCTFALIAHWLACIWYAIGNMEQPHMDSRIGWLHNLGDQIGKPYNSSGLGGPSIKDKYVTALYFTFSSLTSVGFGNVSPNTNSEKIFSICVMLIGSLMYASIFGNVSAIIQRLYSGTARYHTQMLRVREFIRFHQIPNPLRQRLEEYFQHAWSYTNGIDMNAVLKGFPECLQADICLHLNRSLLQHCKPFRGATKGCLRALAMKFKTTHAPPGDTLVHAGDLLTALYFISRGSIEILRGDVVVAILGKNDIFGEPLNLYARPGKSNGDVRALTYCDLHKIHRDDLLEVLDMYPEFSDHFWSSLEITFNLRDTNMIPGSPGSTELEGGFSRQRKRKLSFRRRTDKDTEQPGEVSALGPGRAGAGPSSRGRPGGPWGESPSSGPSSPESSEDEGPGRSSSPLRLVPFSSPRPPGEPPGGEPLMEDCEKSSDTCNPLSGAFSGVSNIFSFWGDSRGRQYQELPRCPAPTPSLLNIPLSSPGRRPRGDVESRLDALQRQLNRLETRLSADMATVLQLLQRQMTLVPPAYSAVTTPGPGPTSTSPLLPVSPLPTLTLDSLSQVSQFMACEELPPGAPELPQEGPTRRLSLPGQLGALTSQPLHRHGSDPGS
row,Structure (SMILES),"hERG current change (%, negative = inhibition) at 10uM"
1,CNC(=S)N(Cc1ccc(Cl)cc1)Cc1cccs1,-38.5%
2,CC(C)c1ccc(C(CC(=O)O)NC(=O)c2cccs2)cc1 (stereo not shown),27.2%
3,CN(c1ccc(C(=O)N2CCN(Cc3ccc4c(c3)OCO4)CC2)cc1)S(=O)(=O)c1ccccc1,-38.3%
4,NC(=O)CC[C@@H]1NC(=O)[C@@H]2CCCN2C(=O)c2cc([N+](=O)[O-])cc(I)c2NCCCC[C@@H](C(=O)NC(CC(=O)O)C(N)=O)NC1=O (stereo partly shown),-16.4%
5,Cc1ccc(NC(=S)NCCO)c(C)c1,9.15%
6,Cc1c(C)c2c(OCC(=O)NCC(=O)NCC(=O)O)cc3c(c2oc1=O)CCC(C)(C)O3,15.2%
7,O=C(Cn1ccc([N+](=O)[O-])n1)NCc1ccccc1,9.94%
8,CCc1nnc(NS(=O)(=O)c2ccc(Nc3ccc4nonc4c3[N+](=O)[O-])cc2)s1,2.96%
9,O=C(NCc1ccco1)/C(=C\c1ccccc1)NC(=O)c1ccccc1,6.85%
10,COCCN1C(=O)c2oc3ccccc3c(=O)c2C1c1cccc(O)c1 (stereo not shown),4.66%
11,Cl.O=C(c1cccc(S(=O)(=O)NCc2ccccc2)c1)N1CCN(Cc2ccccc2)CC1,-34.8%
12,O=C(CSCc1ccc(Cl)cc1)NCc1ccccn1,8.42%
13,COc1ccc(CCNC(=O)c2c(O)c3cccc4c3n(c2=O)CC4)cc1,6.47%
14,Cc1ccc(C)c(SCC(=O)OCC(=O)Nc2ccc(S(=O)(=O)N3CCOCC3)cc2)c1,3.65%
15,O=C(O)c1cccc2c1C(=O)N(C1CCCCC1)C2,-24.3%
16,O=C(NCc1ccccc1CN1CCCC1)C1CCN(S(=O)(=O)c2ccc(Cl)cc2)CC1,-69.4%
17,O=C(C1CCCN(S(=O)(=O)c2cccs2)C1)N1CCN(C2CCCCC2)CC1 (stereo not shown),-24.6%
18,CCCCCCOC(=O)NCC(O)c1ccccc1 (stereo not shown),-8.23%
19,O=S1(=O)N=C(N/N=C/C=C/c2ccccc2)c2ccccc21,2.08%
20,Cc1occc1C(=O)NNC(=O)CN1C(=O)NC(C)(c2ccccc2)C1=O (stereo not shown),19.1%
21,CCc1nc(NCc2ccccn2)c2oc3ccccc3c2n1.Cl,-9.37%
22,Cl.O=C(COc1ccccc1)N1CCN(CC(O)COc2ccccc2)CC1 (stereo not shown),-50.8%

row,Structure (SMILES),"hERG current change (%, negative = inhibition) at 10uM"
1,Cc1c(C)n2c3c(cccc13)CC2,-0.781%
2,CCOC(=O)C1CCN(Cc2ccc(Cl)nc2)CC1,1.35%
3,CC(C(=O)Nc1ccccc1)N(C)Cc1cccs1 (stereo not shown),8.67%
4,OC(CNC1Cc2ccccc2C1)COc1ccc(Cl)cc1 (stereo not shown),-68.8%
5,Cc1ccc(NC(=S)c2ccccc2)cc1,16.4%
6,COC(=O)c1ccc(C(C2C(=O)CC(C)(C)CC2=O)C2C(=O)CC(C)(C)CC2=O)cc1,16.9%
7,NNC(=O)c1ccc(N2CCCCCC2)c([N+](=O)[O-])c1,-9.73%
8,CCC(=O)Nc1nonc1-c1nc2ccccc2n1Cc1ccccc1,10.3%
9,CC(NC(=O)C(NC(=O)C1CCCN1C(=O)OC(C)(C)C)C(C)C)C(N)=O (stereo not drawn) (Boc-Pro-Val-Ala-NH2; configuration not given here),-7.45%
10,Cn1cc(C(=O)N/N=C/C=C/c2ccccc2)ccc1=O,-12.8%
11,Cc1ccc(C)c(COC(=O)c2cc(S(=O)(=O)N3CCCCC3)ccc2N2CCOCC2)c1,-6.53%
12,Cc1ccc(C)c(NC(=O)CCN2CCCCC2)c1,12.6%
13,O=C(O)c1ccccc1Oc1ccc(Oc2ccccc2)cc1,15.7%
14,NNC(=O)c1cccc(COc2ccc3c(c2)CCC3)c1,-0.713%
15,O=C1NC(=O)N(c2ccccc2)C(=O)/C1=C/c1ccc(Sc2ccccc2)o1,18.6%
16,Cc1cc(Cl)ccc1OCC(=O)N1CCN(c2ncccn2)CC1,-12%
17,CN(C)CCCNC(=O)c1cc2sc3ccccc3c2s1.Cl,-64.7%
18,COc1ccccc1CNC(=O)CSc1ccc(-c2ccncc2)nn1,-25.1%
19,Cc1ccc(CC(CC(=O)O)C(=O)NC2CCCCC2)cc1 (stereo not shown),-8.44%
20,CCOC(=O)CN1N=C(/C=C/c2ccc(C)cc2)CCC1=O,17.5%
21,O=C(C1=C(O)C(=O)N(c2ncccn2)C1c1ccc(Cl)c(Cl)c1)c1ccco1 (stereo not shown),3.56%
22,COC(=O)C1C(=O)c2c([nH]c(C(=O)OC3CCCCC3)c2C)CC1C (stereo not shown),-0.668%

row,Structure (SMILES),"hERG current change (%, negative = inhibition) at 10uM"
1,O=C(O)c1ccc2c(c1)C(=O)N(c1cc([N+](=O)[O-])ccn1)C2=O,21.5%
2,O=C(Cn1c(=O)oc2ccccc21)N(Cc1ccccc1)C1CCS(=O)(=O)C1 (stereo not shown),-9.83%
3,c1ccc(CCc2nn3c(Cn4nnc5ccccc54)nnc3s2)cc1,-23.5%
4,COCCN1C(=O)N[C@@H](c2cccs2)C(C(=O)OC)=C1C,16.2%
5,O=C(c1ccc(-c2cccc(C(F)(F)F)c2)o1)N1CCN(c2ccccc2O)CC1,17.1%
6,CCN(CC(=O)Nc1cc(Cl)ccc1C)C(=O)COc1ccccc1F,9.58%
7,Cc1ccccc1C(=O)N1CCC(C(=O)N2CCCc3ccccc32)CC1,-1.08%
8,Cc1cccc(-n2nc([N+](=O)[O-])c(=NC3CCN(Cc4ccccc4)CC3)n2O)c1,-66.8%
9,O=c1c2cn[nH]c2nc(SCc2ccc3c(c2)OCCO3)n1-c1ccccc1,2.13%
10,CC(=O)Oc1cccc(/C=c2\sc3nc(-c4ccco4)nn3c2=O)c1,3.41%
11,Cc1n[nH]c(=O)nc1NCc1ccc(Cl)cc1,4.1%
12,CC1=NN(c2ccc(S(=O)(=O)O)cc2Cl)C(=O)C1,27.8%
13,O=C1C2(c3ccccc3)CN(CCCO)CC1(c1ccccc1)CN(CCCO)C2,-50.4%
14,O=C(CSc1ccc2c(c1)OCCO2)Nc1ccc(Cl)cn1,24.3%
15,Cc1cc(C)c(C)c(S(=O)(=O)N2CCSCC2)c1C,14.5%
16,O=C(Nc1cccc(F)c1)c1ccc(S(=O)(=O)N2CCCCC2)cc1,11.9%
17,O=C(C1CCCN(S(=O)(=O)Cc2ccccc2)C1)N1CCCCC1 (stereo not shown),-5.95%
18,O=C(NNC(=O)C1CCN(Cc2ccccc2)CC1)c1cccc(Cl)c1,-14%
19,Cc1cc(S(=O)(=O)N2CCOCC2)ccc1OCC(=O)Nc1cccc(C(F)(F)F)c1,19.8%
20,COCCNC(=O)C1Cc2c(ccc3ccccc23)O1 (stereo not shown),6.99%
21,CCOC(=O)C(NCCc1ccccc1)(NC(=O)CC)C(F)(F)F (stereo not shown),-18%
22,CCCC(=O)N(CCN1CCOCC1)c1nc2cc(C)c(C)cc2s1.Cl,15%

row,Structure (SMILES),"hERG current change (%, negative = inhibition) at 10uM"
1,Cc1ccc(NC(=O)c2ccncc2)cc1S(=O)(=O)N(C)C,-1.29%
2,CCOC(=O)c1sc(NCc2ccco2)c(-c2nc3ccccc3s2)c1N,7.38%
3,CC1CCN(C(=O)Cn2nnc(-c3ccc([N+](=O)[O-])cc3)n2)CC1,-39.1%
4,Cc1nc2ccc(NC(=O)NCCCO)cc2s1,-0.139%
5,O=C(CCn1nnnc1CN1CCOCC1)N1CCC(c2cccc(Cl)c2)C1 (stereo not shown),-7.7%
6,Cc1cc(C)c(C(=O)N2CCC3(CC2)OCCO3)c(C)c1,19.6%
7,CCN(CC)CC.COc1cccc(-n2c(=S)sc3c(=O)n(-c4ccccc4OC)c(=S)[nH]c32)c1,24.7%
8,COC(=O)CN1C(=O)COc2ccc(S(=O)(=O)NCc3ccc(Cl)cc3)cc21,-30.4%
9,C/C=C/c1ccc(OCC(=O)Nc2ccc(C(N)=O)cc2)c(OC)c1,7.23%
10,COc1ccc(Nc2nc(CC(C)=O)ns2)cc1OC,3.86%
11,N#C/C(=C/c1ccc(N2CCCC2)c([N+](=O)[O-])c1)c1nc2ccccc2[nH]1,-3.43%
12,NC(=O)c1cc(S(=O)(=O)NCc2cccs2)cs1,9.44%
13,N#CCCN1CCC(NC(=O)OCc2ccccc2)CCC1=O (stereo not shown),-24.9%
14,CSCCC(NC(=O)c1ccccc1Cl)C(=O)NC1CCN(Cc2ccccc2)CC1 (stereo not shown),-50.1%
15,CCCOc1ccc(N2C(=O)CC(NCCCN3CCC(C(N)=O)CC3)C2=O)cc1 (stereo not shown),-12.1%
16,O=C(COc1ccc(S(=O)(=O)NC2CCCCC2)cc1)NCC1CCCO1 (stereo not shown),7.21%
17,Cc1c(O)cc2n(c1=O)-c1ccc(Cl)cc1C2(C)C,10.2%
18,CCc1ccc2[nH]c(=O)c(C(c3nnnn3Cc3ccco3)N3CCC(C)CC3)cc2c1 (stereo not shown),-4.03%
19,CCN(CC)S(=O)(=O)c1ccc(N2CC(C(=O)N3CCOCC3)CC2=O)cc1 (stereo not shown),-7.55%
20,Cc1cccc(NC(=O)C(=O)NCC2CCCN2S(=O)(=O)c2cccs2)c1C (stereo not shown),-21.7%
21,O=C(CSc1ccc(-c2cccnc2)nn1)Nc1ccc(F)cc1,-40.3%
22,CC1CCCC(NCC(O)COC(c2ccc(F)cc2)c2ccc(F)cc2)C1C (stereo not shown),-71.6%
